Experimental data as given in PubChem BioAssay AID1721 (National Center for Advancing Translational Sciences (NCATS), 2009).
In all, about 290,000 compounds went through this assay and about 1,100 (0.38%) were called active. Inconclusive results, whose numbers are uncertain, are shown with a selection of clear calls. Calls come from the whole dose curve; as a rule, active = well fitted inhibition curve with a large enough effect; inconclusive = small, poorly fitted or top-dose-only effect, or another doubt; inactive = no such curve, though single readings can be large or run the other way. A potency beside an inconclusive call is a rough fit, not a confirmed value.

The compounds below were run against Pyruvate kinase (Leishmania mexicana) (UniProt Q27686) (assay: qHTS Assay for Inhibitors of Leishmania Mexicana Pyruvate Kinase (LmPK)). Conditions: purified LmPK, Kinase-Glo ATP luminescence, 1 h; series mostly up to 57.5 µM.
Excerpt: NIH Chemical Genomics Center [NCGC] Malcolm Walkinshaw, Hugh Morgan, Linda Gilmore University of Edinburgh, UK MLPCN Grant: 1 R03 MH085697-01 NCGC Assay Overview: Pyruvate kinase (L. Mexicana) (LmPK) enzyme was supplied as a highly purified (>95% pure) sulphate-free preparation from University of Edinburgh, UK and assayed for its ability to generate ATP from ADP using phosphoenolpyruvate (PEP) as a substrate. ATP generation was detected in a coupled reaction by luciferase-mediated luminescence, an ATP-dependent process. […] The enzyme was assayed at an intermediate level of activity to screen for both inhibitors and activators.
NCGC Assay Protocol Summary: Three uL of enzyme mix (kept on ice) in assay buffer (50 mM Imidazole pH7.2, 50 mM KCl, 7 mM MgCl2, 0.01% Tween 20, 0.05% BSA) containing PEP (0.5 mM final concentration) and LmPK (0.1 nM final concentration) was dispensed into white solid bottom 1,536 well microtiter plates. 23 nL of compound were delivered by a pin tool and 1 uL of ADP mix in assay buffer (r.t; 0.1 mM final ADP concentration) was added. Plates were incubated at room temperature for 1 hour. Two uL of detection mix (Kinase-Glo, Promega; at 4 degree Celsius protected from light) was added and luminescence read by a ViewLux (Perkin Elmer) at 1 second exposure/plate. Data were normalized to the uninhibited and AC100 inhibition (no enzyme). To monitor activation, the first column contained a five-fold concentration of LmPK (0.5 nM).
Potency is the fitted concentration of half-maximal effect; tags give direction and shape of the fitted curve.

Chain of UniProt Q27686 (Q27686 whole entry, looked up): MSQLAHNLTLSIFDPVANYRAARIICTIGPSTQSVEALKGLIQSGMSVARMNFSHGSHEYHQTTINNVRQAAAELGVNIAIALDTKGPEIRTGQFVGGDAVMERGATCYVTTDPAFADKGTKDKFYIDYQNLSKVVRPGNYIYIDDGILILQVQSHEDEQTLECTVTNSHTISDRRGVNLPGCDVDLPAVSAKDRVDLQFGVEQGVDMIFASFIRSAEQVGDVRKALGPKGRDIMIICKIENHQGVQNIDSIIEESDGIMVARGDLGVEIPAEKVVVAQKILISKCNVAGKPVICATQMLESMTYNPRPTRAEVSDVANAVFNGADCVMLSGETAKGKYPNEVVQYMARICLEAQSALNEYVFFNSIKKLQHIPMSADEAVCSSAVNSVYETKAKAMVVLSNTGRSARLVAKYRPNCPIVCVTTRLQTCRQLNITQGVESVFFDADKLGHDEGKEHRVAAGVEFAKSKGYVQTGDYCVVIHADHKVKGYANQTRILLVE

Structure (SMILES) | Potency
S=c1[nH]c(-c2ccccc2)cn1-c1ccccc1 | inconclusive: 15.8 µM [falling, partial curve]
COc1cccc(NC(=O)Nc2ccccc2SC)c1 | inconclusive: 22.4 µM [falling, single point]
Cn1c(=O)c2c([nH]c(=S)n2Cc2ccc(Cl)cc2)n(C)c1=O | inconclusive: 25.1 µM [falling, single point]
Nc1ncnc2c1ncn2C1OC(COP(=O)(O)O)C(O)C1O (stereo unspecified) | active: 15.8 µM
Cc1ccc(-c2nnc(Nc3ccc(C(=O)N(C)C)cc3)c3ccccc23)cc1S(=O)(=O)NC(C)(C)CO | inactive
CC1=C(C#N)C(=O)N(C2CCS(=O)(=O)C2)C(=O)/C1=C\c1ccco1 (stereo unspecified) | inconclusive: 22.4 µM [falling, single point]
COc1ccc(CCC(=O)Nc2sccc2C#N)cc1 | inconclusive: 15.8 µM [falling, partial curve]
CC(C)N(C)CCOC(=O)c1ccc2c(c1)OCCO2 | inactive
O=C1C(C2=C(O)c3ccccc3C2=O)=Nc2ccccc21 | active: 17.8 µM
O=C1C=C(Nc2ccccc2)C(=O)c2ccccc21 | inconclusive: 7.08 µM [falling, partial curve]
CN(C)C(=O)c1ccc(NC(=O)c2cncc(Br)c2)cc1 | inconclusive: 14.1 µM [falling, partial curve]
Cc1ccc(NC(=O)CCCc2ccccc2)c([N+](=O)[O-])c1 | inactive
CSc1nsc(SCC(=O)Nc2ccc(F)cc2F)n1 | inactive
C/C(=N\NC(=O)CC(C)C)c1c(C(F)(F)F)[nH]n(-c2nc3ccccc3s2)c1=O | inconclusive: 14.1 µM [falling, partial curve]
COc1ccc(NC(=O)N2CCc3ccccc32)cc1 | active: 12.6 µM
N/C(=N\OC(=O)c1cccc(Br)c1)c1ccccn1 | inconclusive: 20 µM [falling, partial curve]
O=C(/C=C/c1ccc(N2CCOCC2)cc1)c1ccccc1 | inconclusive: 28.2 µM [falling, single point]
Cc1ccc2nc(-c3cccnc3)oc2c1 | inconclusive: 28.2 µM [falling, single point]
CC(=O)Oc1c(Br)cc(N(C(C)=O)S(=O)(=O)c2ccccc2)c2ccccc12 | inconclusive: 28.2 µM [falling, partial curve]
Cc1cc(NC(=O)C2CC2)ncc1NC(=O)c1ccccn1 | inactive
CC1C(=O)NN=C1C(=O)N/N=C\c1ccc(O)cc1O (stereo unspecified) | inconclusive: 25.1 µM [falling, single point]

Structure (SMILES) | Potency
Oc1ccc(Br)cc1-c1cc(-c2ccccc2F)[nH]n1 | inactive
CC1CCN(Cc2c(C(=O)O)nnn2-c2nonc2N)CC1 | inactive
Cc1cc(Cl)ccc1-n1c(-c2cccnc2)n[nH]c1=S | active: 8.91 µM
CCOCC(=O)Nc1nc2ccc(OCC)cc2s1 | inconclusive: 22.4 µM [falling, partial curve]
O=C(Nc1ccc2c(c1)OCCO2)c1coc2ccccc2c1=O | active: 7.94 µM
CN(C)c1ccc(C=Nc2cnn(C)c2C(N)=O)cc1 | inconclusive: 14.1 µM [falling, partial curve]
Cc1n[nH]c(=O)nc1N/N=C/c1ccco1 | inconclusive: 20 µM [falling, partial curve]
CC(=O)c1cn(CCOc2ccccc2C)c2ccccc12 | inactive
O=C(Nc1scc(-c2ccc(F)cc2)c1C(=O)O)c1ccco1 | inconclusive: 39.8 µM [falling, single point]
Nc1nn2cc(-c3ccc(Br)cc3)nc2c2ccccc12 | inconclusive: 25.1 µM [falling, partial curve]
CSc1cccc(NC(=S)N2CCC(N(C)C3CCCC3)CC2)c1 | inactive
Cc1ccc(NC(=O)N2CCc3ccccc32)cc1C | inconclusive: 22.4 µM [falling, partial curve]
O=C1C2C3C=CC(CO)(O3)C2C(=O)N1c1ccccc1-c1ccccc1 (stereo unspecified) | active: 17.8 µM
COC(=O)c1cccc(NC(=O)c2onc3c2CCCC3)c1 | inconclusive: 15.8 µM [falling, partial curve]
Cc1ccc2c(CN3CCC(C(N)=O)CC3)cc(=O)oc2c1C | inactive
CCOc1ccc(N=Nc2c(=O)[nH]n3c(=O)cc(C)[nH]c23)cc1 | active: 14.1 µM
CC1CC(=O)N(Cc2ccccc2)c2ccccc2N1C=O (stereo unspecified) | inactive
O=C(Nc1cccc(Cl)c1)c1ccc2c(c1)OCCO2 | inactive
O=C(Cc1cccc2ccccc12)N/N=C/c1ccc2cccc(O)c2n1 | inactive
COc1ccc(S(=O)(=O)Nc2cc(SCC(=O)O)c(O)c3ccccc23)cc1 | inconclusive: 3.16 µM [falling, partial curve]
CCCc1ccc(OCc2nc(-c3ccc(NC(=O)c4cccs4)cc3)no2)cc1 | inactive

Structure (SMILES) | Potency
S=c1[nH]nc(-c2ccco2)n1-c1ccc(Cl)cc1 | active: 17.8 µM
Cc1ccc(C(=O)Nc2nccs2)cc1 | inconclusive: 28.2 µM [falling, single point]
Cc1ccc(/C=N/NC(=O)c2nn(C)cc2Cl)cc1 | inconclusive: 31.6 µM [falling, single point]
Cc1nc(C2CC(=O)OC23CCCCC3)cs1 (stereo unspecified) | inactive
COc1ccccc1NC(=O)Nc1ccc(F)c(F)c1 | inconclusive: 28.2 µM [falling, single point]
COc1ccc(NC(=O)c2ccc(Br)o2)cc1 | inconclusive: 28.2 µM [falling, partial curve]
Cc1occc1C(=O)Nc1ccc2ccccc2c1 | inconclusive: 17.8 µM [falling, partial curve]
CC(C)(C)c1cnnn1-c1ccc(C=O)cc1 | inactive
CC(=O)c1cc2c(=O)c3cc(C)ccc3oc2nc1C | active: 14.1 µM
C=CCn1c(-c2ccccc2)nc(=S)c2c1CCCC2 | inactive
Cc1ccc(NCc2n[nH]c(=S)n2-c2cccc(Cl)c2)cc1 | inconclusive: 31.6 µM [falling, single point]
CCCCn1c(-c2nn(C)c(C)c2Cl)n[nH]c1=S | inconclusive: 12.6 µM [falling, partial curve]
COc1cc(Cl)ccc1OCc1cc(C(=O)N(C)CCc2cnn(C)c2)no1 | inactive
COc1ccc(NC(=O)c2noc3c2CCC3)cc1 | active: 15.8 µM
O=C(O)CCCNc1cc(N2CCC3(CC2)OCCO3)c2noc3c2c1C(=O)c1ccccc1-3 | inconclusive: 15.8 µM [falling, partial curve]
CCCCCCN1C=C/C(=C\C=C(C#N)C#N)c2ccccc21 | inconclusive: 12.6 µM [falling, partial curve]
Cc1ccc(O)c(-n2nc3ccccc3n2)c1 | inconclusive: 20 µM [falling, partial curve]
O=C(O)CCNc1ccc(NCCC(=O)O)c2c1C(=O)c1ccccc1C2=O | inconclusive: 28.2 µM [falling, single point]
CNc1nnc(-c2ccc(N(C)C)cc2)s1 | inconclusive: 25.1 µM [falling, partial curve]
COc1cccc(/C=N/Nc2ncccc2[N+](=O)[O-])c1OC | active: 14.1 µM
COc1cccc(NC(=O)Nc2ccccc2C(N)=O)c1 | inconclusive: 22.4 µM [falling, partial curve]

Structure (SMILES) | Potency
O=C(Nc1ccc(Cl)cc1)C1CCCN(c2ncnc3c2nc2n3CCCCC2)C1 (stereo unspecified) | inactive
CCCn1c(CCc2ccccc2)n[nH]c1=S | inconclusive: 35.5 µM [falling, single point]
Cc1cc(N/C=C\c2nnnn2-c2ccccc2)no1 | inactive
Clc1cccc(-c2nnc(-c3ccccc3)o2)c1 | active: 25.1 µM
Cc1ccc(-c2ccc(/C=N/N=C3/NC(=O)C(CC(=O)O)S3)o2)c([N+](=O)[O-])c1 (stereo unspecified) | inconclusive: 31.6 µM [falling, single point]
COc1ccc(-c2n[nH]c(=S)n2C2CCCCC2)cc1 | active: 4.47 µM
CCn1nc([N+](=O)[O-])c(C(C#N)c2nc3cc(C(F)(F)F)ccc3s2)c(Cl)c1=O (stereo unspecified) | inconclusive: 28.2 µM [falling, partial curve]
O=C1C=CC(=O)N1CCCCCCN1C(=O)C=CC1=O | inconclusive: 8.91 µM [falling, partial curve]
Cc1ccc(-n2cc[nH]c2=S)cc1C | inconclusive: 17.8 µM [falling, partial curve]
O=C(Nc1ccccc1C(=O)O)/C(=C/c1ccc(Cl)cc1Cl)NC(=O)c1ccco1 | inactive
CSCCC1NC(=S)N(Cc2ccccc2)C1=O (stereo unspecified) | inconclusive: 31.6 µM [falling, partial curve]
COc1cc(-c2nc(C(=O)NCC3CCCO3)cc3c2[nH]c2ccccc23)cc(OC)c1OC (stereo unspecified) | inconclusive: 22.4 µM [falling, single point]
CCn1c(-c2cc(Cl)ccc2OC)n[nH]c1=S | inconclusive: 15.8 µM [falling, partial curve]
c1ccc(-c2noc(-c3cccs3)n2)nc1 | active: 11.2 µM
C(=N\Nc1nncc2ccccc12)/c1ccccc1 | inconclusive: 11.2 µM [falling, partial curve]
O=C(Nc1cccc([N+](=O)[O-])c1)C(=O)N1CCCCC1 | inconclusive: 15.8 µM [falling, partial curve]
COCCNC(=O)c1ccc2c3n(nc2c1)-c1ccc(C)cc1CO3 | inactive
CCN(C(=O)COC(=O)c1c(C)noc1C)C1CCS(=O)(=O)C1 (stereo unspecified) | inconclusive: 25.1 µM [falling, single point]
